Reference: the BET-seq Pho4 binding data (Le et al. 2018)
This is one part of the list. Values were computed here from the reads of four pooled replicates and scatter widely.

These sequences were tested against T1, Pho4 (S. cerevisiae) (UniProt P07270) (assay: relative binding free energy (BET-seq); higher = weaker binding). Conditions: reference: library average.
T1 sequence: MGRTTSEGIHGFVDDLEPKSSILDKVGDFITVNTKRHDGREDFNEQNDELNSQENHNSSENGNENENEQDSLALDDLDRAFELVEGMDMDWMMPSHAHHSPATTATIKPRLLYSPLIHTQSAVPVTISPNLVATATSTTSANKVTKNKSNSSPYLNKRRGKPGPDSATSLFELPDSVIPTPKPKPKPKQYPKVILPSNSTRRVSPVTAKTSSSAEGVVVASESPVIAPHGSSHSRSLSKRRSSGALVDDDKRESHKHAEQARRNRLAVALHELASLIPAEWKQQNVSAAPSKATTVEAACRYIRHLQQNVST

Row | Sequence | relative binding free energy [kcal/mol]
1 | GTTAGCACGTGGTACT | -0.04
2 | TGGGTCACGTGATAGG | 0.29
3 | GAGAACACGTGGGGCG | 0.07
4 | ATTGGCACGTGAATCG | 0.08
5 | AGGCTCACGTGGGATA | 0.15
6 | AGATGCACGTGTGGAT | -0.05
7 | TTTGACACGTGGCAAT | -0.06
8 | TTCGTCACGTGACTGG | 0.29
9 | TGGCGCACGTGTGCTA | -0.03
10 | TAGTTCACGTGAAGGT | 0.31
11 | CGGATCACGTGGAGGA | 0.18
12 | AAGGGCACGTGAGAGT | 0.24
13 | AAGTTCACGTGTCGTT | 0.22
14 | GTTGCCACGTGGATGT | -0.02
15 | GGTTGCACGTGGAGTT | 0.11
16 | GCGGACACGTGTAAGT | 0.24
17 | AGTTTCACGTGCAGAT | 0.21
18 | AGCGGCACGTGGATGT | -0.01
19 | ATTGTCACGTGTGATT | 0.26
20 | ATAGTCACGTGGGGAC | -0.09
21 | GGCGACACGTGTTGTA | 0.09
22 | AATGCCACGTGGGAGG | -0.15
23 | GAGCGCACGTGGGCTG | -0.1
24 | GTAATCACGTGAGTTA | 0.32
25 | TGAGTCACGTGGCGGC | 0.11

Row | Sequence | relative binding free energy [kcal/mol]
26 | GGGGCCACGTGGGGTA | -0.21
27 | TGTTCCACGTGAGTTA | 0.18
28 | TTTTGCACGTGTCTGT | 0.14
29 | ATATACACGTGGATTT | 0.04
30 | ATCTGCACGTGACGGG | 0.24
31 | AGGTCCACGTGGGTGA | -0.02
32 | TGATTCACGTGGATGG | 0.3
33 | CTCGTCACGTGTGCGG | 0.15
34 | CAGTTCACGTGTGGGT | 0.29
35 | TTGGTCACGTGCGCGA | -0.05
36 | AATTGCACGTGAGTTT | 0.21
37 | TAGCGCACGTGGGTAT | -0.2
38 | GTGGACACGTGTGCTT | 0.03
39 | TGTCTCACGTGTGTAT | 0.03
40 | TATGTCACGTGGGAGA | 0.03
41 | GTTTACACGTGACTGG | 0.18
42 | GATTACACGTGAGTTA | 0.47
43 | TGGGTCACGTGAATTG | 0.44
44 | ATCAGCACGTGTGGGG | 0.07
45 | GATTACACGTGGTCTT | 0.19
46 | GATGTCACGTGGACGT | 0.14
47 | GTGGACACGTGATTTG | 0.22
48 | TTCGACACGTGGATGG | 0.15
49 | TGCGTCACGTGTCGTT | -0.04
50 | GGTGACACGTGCGTAG | 0.03

Row | Sequence | relative binding free energy [kcal/mol]
51 | ATATGCACGTGGCTAG | -0.14
52 | CGTTGCACGTGGGACT | -0.09
53 | TAAAGCACGTGTGTTT | -0.1
54 | GTGGTCACGTGCAGTA | 0.19
55 | GGAAGCACGTGGCGGG | -0.24
56 | TTGGCCACGTGTTATG | 0.05
57 | TATGTCACGTGAGGGG | 0.3
58 | GGAGTCACGTGGGACT | 0.16
59 | ACGGGCACGTGGGCTG | -0.3
60 | TGCGGCACGTGGGATA | -0.13
61 | CAGGACACGTGGTAGG | -0.02
62 | TATGACACGTGTGGGT | 0.05
63 | AAGTGCACGTGACGGT | 0.16
64 | GTGGGCACGTGTCGAT | -0.11
65 | ATAGTCACGTGGTCAG | -0.04
66 | GCATTCACGTGATTAT | 0.42
67 | TGTGACACGTGGGATG | -0.11
68 | CACGTCACGTGTGTGT | 0.01
69 | GGTCTCACGTGTAAGT | 0.31
70 | CATGTCACGTGGAAGT | 0.14
71 | TTGTGCACGTGAATTA | 0.23
72 | TTAAGCACGTGTTGCG | -0.14
73 | TGGAGCACGTGTTAGG | -0.04
74 | AGAGTCACGTGGGGAT | 0.02
75 | GTATTCACGTGTTCAG | 0.25

Row | Sequence | relative binding free energy [kcal/mol]
76 | TGGGCCACGTGAACGG | 0.21
77 | AGGTGCACGTGCTGAG | 0
78 | GTGACCACGTGGGCGT | -0.17
79 | ATGCTCACGTGAGGTT | 0.42
80 | TAGTTCACGTGGATCT | 0.24
81 | TAGCGCACGTGGGGAT | -0.32
82 | GTAGCCACGTGGGCTG | -0.21
83 | CTATTCACGTGGTGTG | 0.19
84 | AAGGCCACGTGTGTTG | -0.03
85 | TAGTCCACGTGTAGTT | 0.04
86 | GATAGCACGTGGGGTC | -0.21
87 | GTGTCCACGTGAAAGG | 0.26
88 | GGATGCACGTGCGTAA | 0.09
89 | TATGTCACGTGATTCT | 0.15
90 | GTGAACACGTGCGGCT | 0.16
91 | ACTATCACGTGTGTGT | 0.12
92 | ATGGCCACGTGTTGAG | 0.05
93 | AGGTGCACGTGGCTGA | -0.08
94 | GGTTACACGTGTCGTG | 0.09
95 | ATAGGCACGTGCGGTC | -0.05
96 | TGTGCCACGTGAGGAG | 0.13
97 | GTCCGCACGTGGTGGT | 0.01
98 | GTTCTCACGTGGAGAG | 0.36
99 | ATTGGCACGTGTTGGG | -0.07
100 | AAGACCACGTGTTGGG | 0.12

Row | Sequence | relative binding free energy [kcal/mol]
101 | CGAGTCACGTGTAATT | 0.36
102 | GATATCACGTGATATT | 0.27
103 | GTGGCCACGTGTAGAG | -0.06
104 | GTATGCACGTGGGTCG | -0.06
105 | GCATGCACGTGCGTGT | -0.03
106 | CGTGGCACGTGAATGG | 0.11
107 | TTTCACACGTGTTGCT | -0.01
108 | TTTAACACGTGCTATT | -0.06
109 | TTTGACACGTGCAGTA | -0.08
110 | GTTGTCACGTGGTGCA | 0.18
111 | GATGTCACGTGGAAGT | 0.36
112 | ATATACACGTGGTTTT | -0.02
113 | GTGTACACGTGCTGTA | -0.07
114 | CAGCGCACGTGGGAGG | -0.23
115 | CCTGGCACGTGATGGG | 0
116 | TGATACACGTGGGATA | -0.06
117 | TGTTACACGTGGGTAC | -0.02
118 | GCATACACGTGAGGGG | 0.37
119 | GGTTACACGTGCGGTC | 0.13
120 | TGTTACACGTGTTACA | 0.22
121 | GTGGACACGTGAGTAG | 0.3
122 | AGATTCACGTGTGATT | 0.39
123 | AACGGCACGTGTGGCG | 0
124 | TTGATCACGTGTATTA | 0
125 | TGCGTCACGTGCGTTT | -0.1

Row | Sequence | relative binding free energy [kcal/mol]
126 | TTAATCACGTGGGGAA | 0.09
127 | GCGATCACGTGGTTGG | 0.09
128 | GATTACACGTGGTATG | 0.08
129 | TTTCGCACGTGTGGTC | 0.15
130 | GATTCCACGTGGCGTT | 0.24
131 | GTTATCACGTGGAGTC | 0.27
132 | GAGCGCACGTGATGGT | 0.04
133 | ATTTTCACGTGGCATT | 0.11
134 | GGCTGCACGTGTGATG | -0.05
135 | TTAATCACGTGACTGG | 0.32
136 | GGGTGCACGTGTTATT | 0.1
137 | GCGGGCACGTGTTCGG | -0.08
138 | TGGAGCACGTGAGTCT | 0.1
139 | TGATTCACGTGGGTCT | 0.18
140 | TGCGACACGTGGTTTT | 0.01
141 | GTTGTCACGTGCGTGG | 0.15
142 | TTGGTCACGTGTTTGC | 0.08
143 | GAGTTCACGTGGCGAG | 0.23
144 | AATAGCACGTGTTTAG | -0.05
145 | TGGCTCACGTGTACGG | 0.28
146 | ATGTGCACGTGTAACG | 0.03
